Data: a compilation of properties of binary mixtures (doi:10.1021/jp5065243)
The densities may have been worked out from excess volumes.

Experiment: xn = mol fraction of the nth substance listed
Details: 100 kPa

C[N+](C)(C)CCO.O=S(=O)([N-]S(=O)(=O)C(F)(F)F)C(F)(F)F + CC(O)CO
mass density [kg/m3]
Details | 313.15 K | 318.15 K | 323.15 K | 328.15 K | 333.15 K | 338.15 K | 343.15 K | 348.15 K | 353.15 K
x2 = 0 | 1514 | 1510 | 1505 | – | – | – | 1487 | – | –
x2 = 0.2189 | – | 1471 | 1467 | – | 1457 | 1453 | 1448 | 1444 | –
x2 = 0.3834 | – | 1432 | – | 1422 | – | 1413 | 1409 | 1404 | 1400
x2 = 0.4786 | – | – | 1398 | 1394 | 1389 | 1384 | 1380 | 1375 | 1371
x2 = 0.5867 | 1367 | 1362 | 1357 | 1353 | 1348.4 | 1343.9 | 1339.3 | 1334.8 | –
x2 = 0.7668 | – | 1265.2 | – | 1256.4 | – | 1247.6 | 1243.1 | 1238.7 | 1234.3
x2 = 0.8744 | – | 1177.2 | 1173 | 1168.7 | – | – | 1155.9 | 1151.6 | 1147.2

OCCCCCO + C[N+](C)(C)CCO.O=S(=O)([N-]S(=O)(=O)C(F)(F)F)C(F)(F)F
x1 = 1
Details | mass density [kg/m3]
313.15 K | 977.3
318.15 K | 974.4
323.15 K | 971.5
333.15 K | 965.6
353.15 K | 953.5

CC(O)C(C)O (stereo not given) + CCCC[N+](C)(C)C.O=S(=O)([N-]S(=O)(=O)C(F)(F)F)C(F)(F)F
mass density [kg/m3]
Details | 323.15 K | 328.15 K | 333.15 K | 338.15 K | 343.15 K | 348.15 K | 353.15 K
x1 = 0.0879 | 1358 | 1354 | 1349.3 | 1344.9 | 1340.5 | 1336.2 | 1331.9
x1 = 0.3137 | 1317.7 | 1313.3 | 1308.8 | 1304.4 | – | 1295.6 | 1291.1
x1 = 0.4515 | – | – | 1275.9 | 1271.5 | 1267 | 1262.6 | 1258.2
x1 = 0.557 | 1253.6 | 1249.1 | 1244.7 | 1240.2 | – | 1231.2 | 1226.8
x1 = 0.6216 | 1230.9 | 1226.4 | – | 1217.5 | 1213.2 | – | 1204
x1 = 0.8142 | 1137.6 | 1133.2 | – | 1124.3 | – | 1115.2 | 1110.7
x1 = 1 | 976.1 | 971.9 | 967.5 | – | 958.8 | 954.4 | 950

CCCC[N+](C)(C)C.O=S(=O)([N-]S(=O)(=O)C(F)(F)F)C(F)(F)F + CC(O)CO
mass density [kg/m3]
Details | x2 = 0 | x2 = 0.132 | x2 = 0.1909 | x2 = 0.3054 | x2 = 0.5274 | x2 = 0.7262 | x2 = 0.8149 | x2 = 0.8843
323.15 K | 1371 | 1356 | 1347.7 | – | – | 1220.4 | 1176.3 | 1131
328.15 K | 1366 | – | – | – | 1281.6 | 1216 | – | 1126.8
333.15 K | 1362 | 1346.9 | 1338.9 | – | 1277.2 | 1211.5 | 1167.7 | –
338.15 K | 1358 | 1342.5 | 1334.5 | 1317.5 | – | 1207.1 | 1163.4 | 1118.2
343.15 K | 1353 | 1338 | – | 1313.1 | 1268.2 | 1202.7 | 1159 | 1114
348.15 K | 1349 | 1333.7 | 1325.8 | 1308.7 | – | – | 1154.7 | –
353.15 K | 1344.7 | 1329.2 | 1321.5 | 1304.1 | 1259.3 | 1193.8 | 1150.4 | 1105.3

CCC(O)CO (stereo not given) + CCCC[N+](C)(C)C.O=S(=O)([N-]S(=O)(=O)C(F)(F)F)C(F)(F)F
x1 = 1
Details | mass density [kg/m3]
323.15 K | 979.1
328.15 K | 975.1
333.15 K | 971.2
338.15 K | 967.2
343.15 K | 963.1
348.15 K | 959

CC(O)CO (stereo not given) + C[N+](C)(C)CCO.O=S(=O)([N-]S(=O)(=O)C(F)(F)F)C(F)(F)F
x1 = 1
Details | mass density [kg/m3]
318.15 K | 1017.6
323.15 K | 1013.7
328.15 K | 1009.8
338.15 K | 1001.9
343.15 K | 997.8
348.15 K | 993.8
353.15 K | 989.7

C[N+](C)(C)CCO.O=S(=O)([N-]S(=O)(=O)C(F)(F)F)C(F)(F)F + OCCCO
mass density [kg/m3]
Details | 313.15 K | 318.15 K | 323.15 K | 328.15 K | 333.15 K | 338.15 K | 343.15 K | 348.15 K | 353.15 K
x2 = 0 | 1514 | 1510 | 1505 | – | 1496 | 1492 | – | 1482 | –
x2 = 0.1272 | 1494 | 1490 | – | 1481 | 1476 | 1472 | – | 1463 | 1458
x2 = 0.2297 | 1475 | 1470 | 1466 | 1461 | 1457 | 1452 | 1448 | 1443 | 1439
x2 = 0.4106 | – | 1427 | 1423 | 1418 | – | 1410 | 1405 | 1401 | 1396
x2 = 0.5712 | – | – | 1370 | 1366 | 1361 | 1357 | 1353 | 1348.2 | 1343.9
x2 = 0.6946 | 1323.2 | 1319 | 1314.7 | 1310.4 | 1306.1 | 1301.9 | – | – | 1289.1
x2 = 0.8367 | 1229.1 | 1225.2 | 1221.2 | 1217.3 | 1213.3 | 1209.3 | – | 1201.3 | 1197.3
x2 = 0.9474 | – | 1113 | 1109.5 | 1106 | 1102.5 | – | 1095.3 | 1091.7 | 1088

CCCC[N+](C)(C)C.O=S(=O)([N-]S(=O)(=O)C(F)(F)F)C(F)(F)F + CCC(O)CO
mass density [kg/m3]
Details | 323.15 K | 328.15 K | 333.15 K | 338.15 K | 343.15 K | 348.15 K | 353.15 K
x2 = 0 | 1371 | 1366 | – | 1358 | 1353 | 1349 | 1344.7
x2 = 0.2291 | 1335.3 | 1330.8 | – | 1322 | 1317.7 | – | 1309
x2 = 0.3543 | 1310.3 | 1305.8 | – | 1297 | 1292.6 | 1288.2 | 1283.8
x2 = 0.5116 | 1269.7 | 1265.2 | 1260.8 | 1256.4 | – | – | 1243.1
x2 = 0.6289 | 1229.8 | 1225.3 | 1221 | 1216.7 | 1212.4 | 1208 | 1203.6
x2 = 0.8622 | 1108.2 | 1103.8 | 1099.7 | 1095.5 | 1091.3 | – | –
x2 = 0.9031 | – | – | 1068.7 | 1064.6 | – | 1056.1 | –

OCCCO + C[N+](C)(C)CCO.O=S(=O)([N-]S(=O)(=O)C(F)(F)F)C(F)(F)F
x1 = 1
Details | mass density [kg/m3]
313.15 K | 1040.8
318.15 K | 1037.6
323.15 K | 1034.4
328.15 K | 1031.2
338.15 K | 1024.6
343.15 K | 1021.3
348.15 K | 1018
353.15 K | 1014.6

CC(O)CO (stereo not given) + CCCC[N+](C)(C)C.O=S(=O)([N-]S(=O)(=O)C(F)(F)F)C(F)(F)F
x1 = 1
Details | mass density [kg/m3]
323.15 K | 1013.7
338.15 K | 1001.9
343.15 K | 997.8
348.15 K | 993.8
353.15 K | 989.7

CCCC[N+](C)(C)C.O=S(=O)([N-]S(=O)(=O)C(F)(F)F)C(F)(F)F + CC(O)C(C)O
x2 = 0
Details | mass density [kg/m3]
323.15 K | 1371
328.15 K | 1366
333.15 K | 1362
343.15 K | 1353
348.15 K | 1349

C[N+](C)(C)CCO.O=S(=O)([N-]S(=O)(=O)C(F)(F)F)C(F)(F)F + OCCCCCO
mass density [kg/m3]
Details | 313.15 K | 318.15 K | 323.15 K | 328.15 K | 333.15 K | 338.15 K | 343.15 K | 348.15 K | 353.15 K
x2 = 0 | 1514 | 1510 | 1505 | 1501 | 1496 | 1492 | – | 1482 | –
x2 = 0.1351 | 1480 | 1475 | 1471 | – | 1462 | 1457 | 1453 | 1449 | 1444
x2 = 0.2149 | 1457 | 1452 | – | 1444 | 1439 | 1435 | 1430 | 1426 | 1421
x2 = 0.4145 | 1388 | 1384 | – | 1375 | 1371 | – | 1362 | 1358 | –
x2 = 0.5087 | 1347.9 | 1343.7 | 1339.4 | 1335.2 | 1331 | 1326.8 | – | 1318.3 | 1314.2
x2 = 0.6847 | 1254.8 | 1250.9 | 1246.9 | 1243 | 1239 | – | 1231.1 | 1227.1 | –
x2 = 0.7858 | 1187.1 | – | – | 1176 | 1172.2 | 1168.5 | 1164.8 | 1161 | –
x2 = 0.9071 | 1081.9 | 1078.6 | – | 1072 | 1068.6 | 1065.2 | 1061.9 | 1058.5 | 1055.1
